Results published in patent US20230140838A9, “NOVEL ACTIVITY-BASED PROBES FOR NEUTROPHIL ELASTASE AND THEIR USE” (Takeda Pharmaceutical Company Limited, priority 2018, published 2023).

Experiments:
[1] = biological target: T1, neutrophil elastase (NE) (Homo sapiens, UniProt P08246); assay: Recombinant protease labeling / fluorescent SDS-PAGE, neutrophil elastase; assay type: binding; details: 500 ng recombinant protease; probe 0, 0.1, 0.5 or 1 μM; 37° C. for 30 minutes
T1 construct: purchased Elastin Products Company
T1 sequence (P08246 30-267): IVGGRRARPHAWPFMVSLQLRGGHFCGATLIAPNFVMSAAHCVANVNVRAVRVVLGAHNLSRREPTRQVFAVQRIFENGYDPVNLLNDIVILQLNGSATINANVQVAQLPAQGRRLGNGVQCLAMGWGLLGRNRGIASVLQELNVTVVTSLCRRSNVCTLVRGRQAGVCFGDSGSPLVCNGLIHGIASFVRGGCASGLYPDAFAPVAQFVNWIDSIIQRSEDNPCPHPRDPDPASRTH

[2] = biological target: T2, human proteinase-3 (Homo sapiens, UniProt P24158)
T2 sequence (P24158 28-248): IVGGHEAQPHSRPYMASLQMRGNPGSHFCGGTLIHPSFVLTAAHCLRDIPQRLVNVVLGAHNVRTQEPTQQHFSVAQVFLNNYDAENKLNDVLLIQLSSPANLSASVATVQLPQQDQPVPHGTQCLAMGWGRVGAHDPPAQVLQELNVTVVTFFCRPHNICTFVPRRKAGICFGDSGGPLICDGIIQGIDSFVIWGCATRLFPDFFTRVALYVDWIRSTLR
Protocol: (§1) The reactivity of PK105b against recombinant human serine proteases was tested, and its potency was compared to Cy5-V-DPP. After a brief incubation of increasing amounts of PK105b (0, 0.1, 0.5, or 1 μM) with equal amounts of serine proteases (neutrophil elastase (NE), proteinase-3 (PR-3), or trypsin), the mixtures were resolved by SDS-PAGE and binding of Cy5-V-DPP or PK105b to the serine proteases was detected by in-gel fluorescence.

[3] = biological target: porcine pancreatic trypsin type II-S (beta trypsin) (Sus scrofa, UniProt P00761); details: 500 ng protease; probe 0, 0.1, 0.5 or 1 μM; 37° C. for 30 minutes
Protocol: as §1

[4] = tested on: serine protease activity in lysates prepared from mouse bone marrow
Protocol: (§2) Tubes were rocked overnight at 4° C.
The ability of PK105b to detect serine protease activity in tissue lysates was tested and compared to Cy5-V-DPP.

[5] = tested on: secreted serine proteases found in the lumen of the colon; assay: Labeling of luminal fluids and fecal pellets from control or TNBS-treated mice
Protocol: as §2
Colitis was induced in 10-week old male C57BL/6J mice by intracolonic infusion of picrylsulfonic acid solution (2,4,6-Trinitrobenzenesulfonic acid solution, TNBS; Sigma; 2.5 mg dissolved in 50% ethanol). Body weight and symptoms were recorded daily, and mice were humanely killed after three days. Upon colon extraction, luminal fluids were collected by flushing colons with PBS. Solids were removed by centrifugation and supernatant was concentrated using a 3-KDa cut-off centrifugal filter (Amgen). Pieces of proximal and distal colon were frozen for protease analysis or fixed in 4% paraformaldehyde overnight, paraffin embedded, sectioned, and stained with haematoxylin and eosin.
Furthermore, secreted serine proteases found in the lumen of the colon (either luminal flush or in fecal pellets) were also tested with PK105b (FIG. 6B-C). […] Nonetheless, NE activity could be clearly delineated by PK105b in lysates from colon tissues.

SMILES: CCC(NC(=O)[C@@H]1CC2CCCCC2N1C(=O)[C@H](CCS(C)(=O)=O)NC(=O)[C@H](CCCCOCc1ccccc1)NC(=O)CCCCCN1/C(=C/C=C/C=C/C2=[N+](CC)c3ccc(S(=O)(=O)[O-])cc3C2(C)C)C(C)(C)c2cc(S(=O)(=O)O)ccc21)P(=O)(Oc1ccccc1)Oc1ccccc1 (some centres unmarked) [PK105b]
- labeling of NE detected by in-gel fluorescence [1]: clearly labeled
- labeling of PR-3 detected by in-gel fluorescence ([2]; 500 ng recombinant protease, probe 0, 0.1, 0.5 or 1 μM, 37° C. for 30 minutes): clearly labeled
- potency of PR-3 labeling compared between probes ([2]; recombinant PR-3, 0.1-1 μM probe): more potent than Cy5-V-DPP
- labeling / binding of trypsin detected by in-gel fluorescence [3]: labeled trypsin
- potency of labeling in bone marrow lysates compared between probes ([4]; 0.1, 0.5 and 1 μM): greater potency than Cy5-V-DPP
- identity of labeled 25-KDa protein by immunoprecipitation with NE-specific antibody ([4]; mouse bone marrow lysate): confirmed to be NE
- labeled proteins in luminal flush and fecal pellets ([5]; control or TNBS-treated mice, in-gel fluorescence): two labeled serine proteases at 25 kDa
- identity of labeled species by immunoprecipitation ([5]; fecal samples, antibodies to NE, PE, trypsin 3): low levels of NE in these samples, with pancreatic elastase and trypsin 3 being the predominant species
